Test results published in the supplement of paper PMC10326071.
“And” between values parts separate entries of the source, which are not always exact repeats. Equal values may be shown once. The list shows a part of the results. Single values are uncertain, as repeats are few or missing.

Test system: SARS-CoV-2 nsp3 SARS-unique domain core (SUD-core, nsp3 residues 413-676)
Test: dissociation rate constant koff (BLI); higher = faster dissociation
Details: 100 µM; 25 °C
Procedure: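 Primary BLI (Octet RED96e) screen of MedChemExpress Nucleotide Compound and Kinase Inhibitor libraries (1770 compounds) against biotinylated SARS-CoV-2 SUD-core on SSA biosensors. Each compound was tested once at 100 uM in PBS pH 7.4, 1% DMSO; 150 s association, 180 s dissociation, 25 C. Kd and koff are apparent values from single-concentration 1:1 fits. Only fits with full R^2 >= 0.9 are kept; fits at the software floor (<1e-12 M, <1e-7 /s) and placeholder values are excluded.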

SMILES	dissociation rate constant koff
CC#CC(=O)N1CC[C@@H](n2c(=O)n(-c3ccc(Oc4ccccc4)cc3)c3c(N)ncnc32)C1	0.414 s⁻¹
CO[C@@H]1[C@H](O)[C@@H](CO)O[C@H]1n1cnc2c(N)ncnc21	0.0146 s⁻¹
CC(C)(O)CNc1ncc(-c2ccnc(Nc3ccnc(Cl)c3)n2)c(CC2CC2)n1	0.46 s⁻¹
Cc1ccc(NC(=O)c2ccc(CN3CCN(C)CC3)cc2)cc1Nc1nc(-c2cccnc2)cs1	0.105 s⁻¹
Cc1nn(CC(F)(F)F)cc1Nc1ncc(Br)c(NCc2ccc(S(N)(=O)=O)cc2)n1	1 s⁻¹
CC(CCc1ccccn1)(CCc1ccccn1)C(=O)c1ccccc1	0.0976 s⁻¹
COc1cc(Nc2ncc(F)c(Nc3ccc4c(n3)N(COP(=O)(O)O)C(=O)C(C)(C)O4)n2)cc(OC)c1OC	0.619 s⁻¹ and 1.74 s⁻¹
COCCOc1ccc(-c2cn(-c3ccccc3)c3nc[nH]c(=O)c23)cc1	0.079 s⁻¹
COCCOCCc1c(C)c2cc(OC)c(O)c(C=O)c2oc1=O	0.405 s⁻¹
O=c1ccn([C@H]2C[C@H](O)[C@@H](CO)O2)c(=O)[nH]1	0.00957 s⁻¹
CCCCCCCC/C=C/CCCCCCCC(=O)OC[C@H]1O[C@@H](n2ccc(N)nc2=O)[C@@H](O)[C@@H]1O	0.0128 s⁻¹
Cc1ccc(-c2csc3ncnc(SCCC(=O)O)c23)cc1	0.0503 s⁻¹
CS(=O)(=O)CCNCc1ccc(-c2ccc3ncnc(Nc4ccc(OCc5cccc(F)c5)c(Cl)c4)c3c2)o1	0.00823 s⁻¹
C[C@H](CC[C@@H](O)C(C)(C)O)[C@H]1CC[C@@]2(C)[C@@H]3CC=C4[C@@H](CC[C@H](O)C4(C)C)[C@]3(C)[C@H](O)C[C@]12C	1.11 s⁻¹
N#Cc1ccc(-c2c(-c3ncn[nH]3)sc(N3CCOCC3)c2C#N)c(F)c1	0.258 s⁻¹
CC(C)NC(=O)C1CCC(n2c(NC(=O)c3ccc(F)cc3)nc3ccc(CN4CCC(C(C)(C)O)CC4)cc32)CC1 (stereo not given)	0.0161 s⁻¹
CNc1nc(N)nc2c1ncn2[C@@H]1O[C@H](CO[P@@](=O)(N[C@@H](C)C(=O)OC(C)C)Oc2ccccc2)[C@@H](O)[C@@]1(C)F	0.0583 s⁻¹
C=CCc1ccc(O)c(-c2ccc(O)c(CC=C)c2)c1	0.231 s⁻¹
C[C@@H]1CCNC(=O)c2cc3ccc(C(=O)Nc4nc5ccccc5n4CCCN(C)C)cc3n21	1.29 s⁻¹
C=CC(=O)N1CCC([C@@H]2CCNc3c(C(N)=O)c(-c4ccc(Oc5ccccc5)cc4)nn32)CC1	0.879 s⁻¹

SMILES	dissociation rate constant koff
CNC(=O)c1nn(C)c2c1C(C)(C)Cc1cnc(Nc3ccc(N4CCN(C)CC4)cc3)nc1-2	0.358 s⁻¹
C[C@H]1O[C@@H](n2cc(F)c(=O)[nH]c2=O)[C@H](O)[C@@H]1O	0.115 s⁻¹
CCn1cc(-c2ccc3c(c2)CCN3C(=O)Cc2cccc(OC(F)(F)F)c2)c2c(N)ncnc21	0.0488 s⁻¹
COc1ccc2c(Nc3cc(NC(=O)c4cccc(C(C)(C)C#N)c4)ccc3C)ncnc2c1	0.176 s⁻¹
COC(=O)N[C@@H](C)CNc1nccc(-c2cn(C(C)C)nc2-c2cc(Cl)cc(NS(C)(=O)=O)c2F)n1	0.713 s⁻¹
Cn1c(N)nc2c(ncn2[C@@H]2O[C@H](CO)[C@@H](O)[C@H]2O)c1=O	0.0288 s⁻¹
CNc1ccc(-c2nc(N3CCOCC3)c3sc(CN(C)c4ncc(C(=O)NO)cn4)cc3n2)cn1	0.039 s⁻¹
O=C(NC1CCNCC1)c1[nH]ncc1NC(=O)c1c(Cl)cccc1Cl	0.503 s⁻¹
Nc1ncnc2c1c(-c1cccc(OCc3ccccc3)c1)cn2C1CC(CN2CCC2)C1 (stereo not given)	0.0271 s⁻¹
Cc1ccc(C(=O)Nc2ccc(CN3CCN(C)CC3)c(C(F)(F)F)c2)cc1C#Cc1cnc2[nH]ncc2c1	0.00115 s⁻¹
C[C@H](Nc1ncnc2nc[nH]c12)c1nc2ccc(F)cc2c(=O)n1-c1ccccc1	0.808 s⁻¹
O=C(Nc1cccc(C(F)(F)F)c1)c1cccc2cc(Oc3cc(CO)ncn3)ccc12	0.0328 s⁻¹
NC(=O)c1ccccc1Nc1ccnc(Nc2cccc(O)c2)n1	1.17 s⁻¹
COc1ccc(CCC(=O)c2ccc(O)cc2)c(OC)c1	0.378 s⁻¹
C=CC(=O)Nc1cccc(C)c1Nc1ncc2cc(-c3c(Cl)c(OC)cc(OC)c3Cl)ccc2n1	0.201 s⁻¹
COc1cc2ncnc(Nc3ccccc3)c2cc1OC	0.486 s⁻¹
O[C@@H]1CO[C@H]2[C@@H]1OC[C@H]2Oc1nc2nc(-c3ccc(-c4ccccc4)cc3)c(Cl)cc2[nH]1	0.133 s⁻¹
CCN(C)C(=O)c1ccc2c(C(=Nc3ccc(CN4CCCCC4)cc3)c3ccccc3)c(O)[nH]c2c1	0.688 s⁻¹
C[C@@H](Nc1ncnc2[nH]c(-c3ccc(O)cc3)cc12)c1ccccc1	0.409 s⁻¹
NCCCCCCNS(=O)(=O)c1cccc2c(Cl)cccc12	0.702 s⁻¹
